From article PMC4336329 (PLoS ONE, 2015)
About 14,000 (4.5%) of roughly 310,000 compounds showed an effect of 50% or more. The effect is printed as a negative number. The list shows a part of the results.

target: human ether-à-go-go-related gene (hERG) potassium channel (human, UniProt Q12809); assay: primary screen, population patch clamp on CHO cells stably expressing hERG
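Further: peak tail current of the secondary pulse compared with the same well before compound.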

Sequence of human ether-à-go-go-related gene (hERG) potassium channel (Q12809 whole entry, looked up): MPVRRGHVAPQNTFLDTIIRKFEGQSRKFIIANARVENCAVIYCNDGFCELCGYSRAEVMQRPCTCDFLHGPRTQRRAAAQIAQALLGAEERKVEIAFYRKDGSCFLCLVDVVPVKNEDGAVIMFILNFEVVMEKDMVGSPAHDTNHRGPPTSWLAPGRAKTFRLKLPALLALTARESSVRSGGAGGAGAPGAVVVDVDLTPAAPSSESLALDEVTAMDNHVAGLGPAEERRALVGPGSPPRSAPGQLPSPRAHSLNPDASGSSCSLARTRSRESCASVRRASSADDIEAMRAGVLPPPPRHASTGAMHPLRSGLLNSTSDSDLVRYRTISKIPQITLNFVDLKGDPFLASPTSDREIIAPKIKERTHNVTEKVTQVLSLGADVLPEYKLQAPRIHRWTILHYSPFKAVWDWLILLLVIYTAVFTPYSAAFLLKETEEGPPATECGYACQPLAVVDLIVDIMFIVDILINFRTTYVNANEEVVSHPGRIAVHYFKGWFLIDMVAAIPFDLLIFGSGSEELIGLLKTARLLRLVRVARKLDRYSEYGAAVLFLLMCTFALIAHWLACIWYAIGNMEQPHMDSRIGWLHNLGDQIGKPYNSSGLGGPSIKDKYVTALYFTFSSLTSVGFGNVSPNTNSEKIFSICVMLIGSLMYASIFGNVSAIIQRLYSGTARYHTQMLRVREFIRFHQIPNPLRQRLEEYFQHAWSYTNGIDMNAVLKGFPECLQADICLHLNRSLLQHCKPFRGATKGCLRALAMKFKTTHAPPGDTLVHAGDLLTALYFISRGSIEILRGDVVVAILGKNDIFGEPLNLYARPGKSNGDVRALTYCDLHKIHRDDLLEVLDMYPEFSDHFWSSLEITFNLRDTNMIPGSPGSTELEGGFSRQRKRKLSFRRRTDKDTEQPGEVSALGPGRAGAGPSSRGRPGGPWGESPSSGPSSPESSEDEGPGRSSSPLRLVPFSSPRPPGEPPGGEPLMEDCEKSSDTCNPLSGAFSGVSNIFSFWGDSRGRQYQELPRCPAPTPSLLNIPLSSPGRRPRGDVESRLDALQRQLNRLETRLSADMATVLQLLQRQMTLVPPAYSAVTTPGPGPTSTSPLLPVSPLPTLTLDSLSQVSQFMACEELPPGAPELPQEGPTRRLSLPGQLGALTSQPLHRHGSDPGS

Structure (SMILES)	hERG current change (%, negative = inhibition) at 10uM
Cc1ccc(NC(=O)CCn2nnc3ccccc32)c(C)c1	9.21%
CCc1cc(C(=O)Nc2ccc(S(=O)(=O)NC3=NCCCCC3)cc2)sc1C	-25.4%
CC1CCN(c2nc3c(c(=O)n(C)c(=O)n3C)n2Cc2ccccc2)CC1	-50%
Nc1nc(SCc2ccc([N+](=O)[O-])cc2)c2ncn(C3OC(CO)C(O)C3O)c2n1 (centres unmarked)	7.33%
CCOC(=O)c1ccc(NS(=O)(=O)CC)cc1	16.2%
Cc1ccc(CCNC(=O)C2CC(c3ccccc3[N+](=O)[O-])=NO2)cc1 (centres unmarked)	-20.7%
Cl.O=c1c(-c2ccccc2)coc2c(CN3CCCCC3)c(O)ccc12	14.6%
O=C(COc1ccccc1Br)Nc1ccc(S(=O)(=O)N2CCCC2)cc1	5.33%
CCOC(=O)CNC(=O)CSc1nc(Cc2ccccc2)nc2ccccc12	-17.6%
O=C(O)C1CC=CCC1C(=O)Nc1cccc(F)c1 (centres unmarked)	6.32%
CCOc1ccc(S(=O)(=O)NC2CC2)cc1	4.15%
CCCCn1c(-c2csc3ccccc23)n[nH]c1=S	12.8%
O=C(NCC1CCCO1)c1ccc2c(c1)OCO2 (centres unmarked)	4.88%
CCCCS(=O)(=O)N1CCCC(C(=O)Oc2ccccc2)C1 (centres unmarked)	8.98%
Cc1ccc(C(=O)N/N=C\c2cc3c(cc2Br)OCO3)cn1	25.7%
Cn1c(=O)c2c(ncn2CC(=O)N/N=C/c2ccc(Br)s2)n(C)c1=O	-20.4%
O=C(N/N=C/c1sc(=O)[nH]c1-[n+]1ccc2ccccc2c1)c1ccccc1[O-]	14.4%
COc1ccc(CCn2c(C)cc(C(=O)CCl)c2C)cc1OC	2.63%
CCCCCCC(=O)N/N=C/c1c(O)n(CCCC)c(=S)[nH]c1=O	9.92%
Cc1cc(N2CCCCC2)n2ncc(-c3ccc(Cl)cc3)c2n1	10.9%
Cc1ccccc1OCC(=O)Nc1cccc(N(C)S(C)(=O)=O)c1	-0.768%
CC(=O)Nc1ccc(NC(=O)Cc2ccc(-c3ccccc3)cc2)cc1	15.7%
CC(=O)CSc1ccc(-c2nc3cc(C)c(C)cc3[nH]2)cn1	22.2%

Structure (SMILES)	hERG current change (%, negative = inhibition) at 10uM
O=C(CNc1cccc(S(=O)(=O)N2CCCC2)c1)Nc1ccc(F)cc1F	-4.58%
CCOC(=O)c1cc(-c2ccccc2)nn1CC1CC(c2cccc([N+](=O)[O-])c2)=NO1 (centres unmarked)	-24.2%
O=C(COc1ccc(Br)cc1)NCc1cn2ccccc2n1	-42.7%
CCOC(=O)Cc1csc(NC(=S)NC(=O)c2ccccc2Br)n1	-6.16%
COCCn1c(C)cc(C(=O)COC(=O)c2ccc3ncsc3c2)c1C	-10.1%
CN(C)CCNc1nc2sc3c(c2c(=O)n1CCc1ccccc1)CCCCC3	-24.2%
O=C(c1csc2c1CCCC2)N1CCN(c2ccc(F)cc2)CC1	-33.6%
Cc1ccc(S(=O)(=O)NCCC(=O)Nc2ccc(C)cc2C(=O)c2ccccc2)cc1	-38.1%
O=C(Nc1nc(-c2ccccn2)cs1)c1ccc(F)c(S(=O)(=O)N2CCOCC2)c1	-25.3%
O=C(Nc1ccc(NC(=O)c2ccccc2F)cc1)c1ccccc1F	7.72%
CC(=O)c1c(C)oc2ccc(N(C(C)=O)S(=O)(=O)c3ccc(Br)cc3)cc12	-2.27%
CCOC(=O)C1C(=O)CC(C)(O)C(C(=O)OCC)C1c1ccc2c(c1)OCO2 (centres unmarked)	-3.89%
S=C(Nc1ccc(Br)cc1)NC1CCCCC1	13.3%
Cc1cc(=O)n2c3ccccc3n(CC(O)CN3CCCCC3)c2c1C#N (centres unmarked)	-53.2%
NNc1ccc2c(C(F)(F)F)cc(C(F)(F)F)nc2n1	5.69%
CCOC(=O)c1cnn(-c2cc(C)cc(C)c2)c1N	20.4%
Cc1ccccc1OCCNC(=O)c1ccco1	24.5%
CCc1ccc2oc(C(=O)NCC(c3ccc(OC)cc3)N3CCCCC3)c(C)c2c1 (centres unmarked)	-3.57%
COCCn1nnnc1C(c1ccccn1)N1CCN(c2cc(Cl)ccc2C)CC1 (centres unmarked)	-36.7%
Cc1cc(C)cc(N2C(=O)C3CC=CCC3C2=O)c1 (centres unmarked)	5.66%
O=C(O)C1CCCC[C@H]1C(=O)Nc1ncc([N+](=O)[O-])s1 (some centres unmarked)	7.72%
Cc1cccnc1Nc1nc(-c2ccc(O)cc2)cs1	1.89%
O=c1oc2ccc(Br)cc2cc1-c1nc2ccccc2o1	8.26%

Structure (SMILES)	hERG current change (%, negative = inhibition) at 10uM
COc1ccc(CC(=O)N(c2ccccc2)c2nc(C)cs2)cc1	-43.3%
COc1cccc(CC(=O)N2CCC(CCC(=O)Nc3cccc(OC)c3)CC2)c1	-17.8%
Cc1c(NC(=O)COC(=O)c2cc(-c3ccc(-c4ccccc4)cc3)nc3ccccc23)c(=O)n(-c2ccccc2)n1C	28.4%
CC1=C[C@H]2OC(=O)[C@@H](C)[C@H]2C[C@@H]2[C@H]1C[C@@H](O)[C@@]2(C)O	6.22%
CCN(CC(=O)NCc1ccc(F)cc1)C(=O)c1ccc(C)o1	6.13%
CN1c2ccccc2Oc2nnc(N3CCN(Cc4ccccc4)CC3)cc21	-78%
CN(C)C(=O)NC(O)C(Cl)Cl (centres unmarked)	-2%
CC(NC(=O)c1ccco1)C(=O)N(C)Cc1ccc(C(F)(F)F)cc1 (centres unmarked)	0.665%
CC(C)CC(=O)Nc1cccc(-c2nc3ncccc3o2)c1	-18.6%
CCOC(=O)c1nnn(CC(=O)Nc2ccccc2OC)c1C(=O)OCC	6.59%
CC(=O)N1CCN(c2ccc([N+](=O)[O-])cc2C#N)CC1	-88%
CCC(C)C(NC(=O)OCc1ccccc1)C(=O)NCC(c1ccccc1)N(C)C (centres unmarked)	-7.1%
COc1ccc(-c2nc(SCC(=O)NCc3ccco3)c(-c3ccccc3)[nH]2)cc1OC	4.94%
COC(=O)c1cc2sccc2n1Cc1ccc(C)cc1	8.64%
CCN(C(=O)COC(=O)c1ccc(C)c(S(=O)(=O)N2CCCCC2)c1)C1CCS(=O)(=O)C1 (centres unmarked)	-66.5%
Cc1ccc(C)c2c1cc(C)c1nnc(SCC(=O)Nc3cccc(C(=O)O)c3)n12	23.4%
Cc1cc(C)nc(NS(=O)(=O)c2ccc(N3C(=O)C4CCCCC4C3=O)cc2)n1 (centres unmarked)	21.6%
CCCCCCSc1nsc(N)n1	-10.8%
CC1CC(C)CN(C(=O)CCCNC(=O)c2ccc(Cl)cc2)C1 (centres unmarked)	-23.6%
CCCn1c(SCC(=O)N2CCN(S(=O)(=O)c3ccc(Cl)cc3)CC2)n[nH]c1=O	-11%
Cc1ccc(NC(=S)N2CCC(NC(=O)c3ccccc3)CC2)cc1	-14.5%
CCN(CC)CCn1c(NS(=O)(=O)c2ccc(Cl)cc2)nc2ccccc21.Cl	-69.8%
O=c1c2ccccc2nc(-c2ccoc2)n1-c1ccccc1	-8.85%

Structure (SMILES)	hERG current change (%, negative = inhibition) at 10uM
CCn1cc(/C=N/NS(=O)(=O)c2ccc(C)cc2)c(C)n1	0.665%
CCO[C@H]1OC(C(=O)N2CCCCCCC2)=C[C@@H](C)[C@@H]1CCCO	3.15%
CN(Cc1ccccc1F)C(=O)c1ccc(NS(=O)(=O)c2ccc3[nH]c(=O)[nH]c3c2)cc1	6.14%
CC(Nc1ccc(Cl)cc1)C(=O)NN (centres unmarked)	-5.86%
CCCCCCNCCn1cnc2c(N)ncnc21	-38%
CNc1oc(-c2ccc(Cl)cc2)nc1C#N	-4.17%
COc1ccc(S(=O)(=O)N2CCCCC2)cc1NC(=O)CSc1nccn1C	-5.73%
CCN(CC)S(=O)(=O)c1cc(C)ccc1NC(=S)Nc1cccnc1	-6.33%
Cc1ccc(C=C2C(=O)c3ccccc3C2=O)o1	16.9%
CC(C)(C)c1csc(NC(=O)c2cccnc2)n1	13.6%
CCC(c1nnc(SCC(=O)N(C)c2ccccc2)n1Cc1ccccc1)N(C)C (centres unmarked)	10.5%
COc1ccc(NC(=O)C23CCC(C)(C(=O)C2)C3(C)C)cc1 (centres unmarked)	6.31%
OC[C@H]1O[C@H](OCc2ccccc2)[C@H](O[C@@H]2OC[C@@H](O)[C@H](O)[C@H]2O)[C@@H](O)[C@@H]1O	23.8%
Cc1cc(C(=O)Nc2ccc(CC(=O)O)cc2)c(C)o1	15.6%
O=C(Nc1cccc(F)c1)N1C2CCC1CC(O)(c1cccnc1)C2 (centres unmarked)	24.1%
Cc1ccc(C(=O)NCCc2nnc3ccc(SCC(=O)NCc4ccc(F)cc4)nn23)cc1	-7.49%
COc1ccc(/C=C/C(=O)NCC(=O)N/N=C(/C)c2ccc(Cl)cc2)cc1	9.47%
COc1ccc(S(=O)(=O)N(CCc2ccccc2)CC(=O)O)cc1	-0.622%
C=CCn1c(=S)[nH]c2ccccc2c1=O	3.65%
COc1ccc(OC)c(C(C(=O)NC2CCCCC2)N(Cc2ccco2)C(=O)c2ccccn2)c1 (centres unmarked)	-1.41%
